Consider 27 compounds from the antibiotic and cytotoxicity screens of Wong et al. (2023).

For test [1], the system named is HSkMC (human skeletal muscle cells). Kind of test: cytotoxicity call (relative viability < 0.9). The note with it: 10 µM.
Test [2] relates to HepG2. Kind of test: cytotoxicity call (relative viability < 0.9). The following applies: 10 µM.
The subject of test [3] is S. aureus RN4220. As to the kind of experiment: growth inhibition call (relative growth <= 0.2). The note with it: 50 µM.

The list shows a part of the results.

Take `COc1ccc(S(=O)(=O)Nc2ccc3c(c2)C(=O)N([C@@H](C)CO)C[C@H](C)[C@H](CN(C)Cc2ccncc2)O3)cc1`: the cytotoxicity call in test [1] and in test [2] was “inactive” throughout. In addition, the growth inhibition call in test [3] is “inactive”.

Regarding `C[C@@H]1CN([C@H](C)CO)C(=O)c2cccc(NC(=O)Nc3ccc(C(F)(F)F)cc3)c2O[C@H]1CN(C)C(=O)NC1CCCCC1`, in test [1], the cytotoxicity call is “inactive”. Besides, the cytotoxicity call in test [2] was “active”. Also, the growth inhibition call in test [3] is “inactive”.

Regarding `O=C(C[C@H]1CC[C@@H]2[C@H](COC[C@@H](O)CN2C(=O)c2cnccn2)O1)NCc1ccc(Oc2ccccc2)cc1`, the cytotoxicity call in test [1] and in test [2] was “inactive” each time. The growth inhibition call in test [3] was “inactive”.

With `COc1ccc(CN(C)C[C@H]2OCCCC[C@H](C)Oc3ccc(NS(=O)(=O)c4c(C)noc4C)cc3C(=O)N([C@H](C)CO)C[C@@H]2C)cc1`, the cytotoxicity call in test [1] and in test [2] was “inactive” each time. Besides, in test [3], the growth inhibition call is “inactive”.

For `C[C@@H](O)C#Cc1ccc2c(c1)O[C@H](CN(C)C(=O)c1ccccc1)[C@@H](C)CN([C@@H](C)CO)S2(=O)=O`, the cytotoxicity call in test [1] and in test [2] was “inactive” in each case. For the same compound, in test [3], the growth inhibition call was “inactive”.

Regarding `CC(C)NC(=O)N(C)C[C@@H]1Oc2ccc(NS(=O)(=O)c3ccc(Cl)cc3)cc2C(=O)N([C@H](C)CO)C[C@H]1C`, the cytotoxicity call in test [1] and in test [2] was “inactive” each time. For the same compound, the growth inhibition call in test [3] is “inactive”.

On to `C[C@H]1CN([C@@H](C)CO)C(=O)c2cccc(NS(=O)(=O)c3ccc(Cl)cc3)c2O[C@@H]1CN(C)Cc1ccc(Cl)c(Cl)c1`, for which the cytotoxicity call in test [1] is “inactive”. Further, in test [2], the cytotoxicity call was “active”. Also, the growth inhibition call in test [3] is “inactive”.

Consider `C[C@H](CO)N1C[C@H](C)[C@@H](CN(C)S(C)(=O)=O)Oc2cc(C#Cc3ccc(F)cc3)ccc2S1(=O)=O`, for which the cytotoxicity call in test [1] and in test [2] was “inactive” in each case. Further, the growth inhibition call in test [3] was “inactive”.

As for `Cc1noc(C)c1NC(=O)Nc1ccc2c(c1)C(=O)N([C@@H](C)CO)C[C@@H](C)[C@H](CN(C)C(=O)Nc1ccccc1)OCCCC[C@@H](C)O2`, the cytotoxicity call in test [1] and in test [2] was “inactive” in each case. Further, the growth inhibition call in test [3] is “inactive”.

As for `CCN1[C@@H]2Cn3c(ccc(-c4ccncc4)c3=O)[C@H]1[C@@H](C(=O)NCCc1cn(C)cn1)[C@@H]2CO`, the cytotoxicity call in test [1] and in test [2] was “inactive” each time. Moreover, the growth inhibition call in test [3] was “inactive”.

As to `C[C@H]1CN([C@@H](C)CO)C(=O)c2cc(NC(=O)Cc3ccccc3)ccc2O[C@H]1CN(C)Cc1ccc(-c2ccccc2)cc1`, the cytotoxicity call in test [1] and in test [2] was “inactive” in each case. The growth inhibition call in test [3] was “inactive”.

Regarding `N#CCNC(=O)Cc1ccccc1`, the cytotoxicity call in test [1] and in test [2] was “inactive” in each case. Moreover, the growth inhibition call in test [3] is “inactive”.

As to `CCNC(=O)C[C@@H]1CC[C@H](NC(=O)C2CC2)[C@@H](CO)O1`, the cytotoxicity call in test [1] and in test [2] was “inactive” each time. Besides, the growth inhibition call in test [3] is “inactive”.

Take `C[C@H](CO)N1C[C@H](C)[C@H](CN(C)S(=O)(=O)c2cccs2)Oc2ccc(NC(=O)c3ccncc3)cc2C1=O`: the cytotoxicity call in test [1] and in test [2] was “inactive” in each case. Moreover, the growth inhibition call in test [3] was “inactive”.

Consider `Cc1ccc(S(=O)(=O)Nc2ccc3c(c2)C(=O)N([C@H](C)CO)C[C@@H](C)[C@@H](CN(C)C(=O)Nc2cccc4ccccc24)O3)cc1`, for which the cytotoxicity call in test [1] and in test [2] was “inactive” throughout. The growth inhibition call in test [3] is “inactive”.

In the case of `COC(=O)c1c(CC[C@@H](CO)NC(=O)N[C@@H](C)Cn2cc(C3(O)CCCC3)nn2)oc(C(C)=O)c1C(=O)OC`, the cytotoxicity call in test [1] and in test [2] was “inactive” throughout. In test [3], the growth inhibition call is “inactive”.

Regarding `Cc1ccc(S(=O)(=O)N(C)C[C@H]2Oc3ccc(NS(=O)(=O)c4ccccc4)cc3C(=O)N([C@H](C)CO)C[C@H]2C)cc1`, the cytotoxicity call in test [1] and in test [2] was “inactive” each time. In test [3], the growth inhibition call was “inactive”.

Consider `Cc1cc(SC(=O)N/C=C/c2ccco2)c(C)cc1Cl`, for which the cytotoxicity call in test [1] and in test [2] was “inactive” each time. The growth inhibition call in test [3] was “inactive”.

For the compound `CN1C(=O)c2cc(NC(=O)c3ccc(C(F)(F)F)cc3)ccc2OC[C@@H]2O[C@@H](CC(=O)NC3Cc4ccccc4C3)CC[C@@H]21`, the cytotoxicity call in test [1] is “inactive”. Also, in test [2], the cytotoxicity call was “active”. The growth inhibition call in test [3] was “inactive”.

With `CC(C)CC#Cc1ccc2c(c1)O[C@@H](CN(C)C(=O)c1cnccn1)[C@@H](C)CN([C@@H](C)CO)S2(=O)=O`, the cytotoxicity call in test [1] and in test [2] was “inactive” each time. The growth inhibition call in test [3] is “inactive”.

As to `O=C1c2ccccc2[C@](Cc2ccccc2I)(C(=O)O)[C@H](c2ccc(CO)cc2)N1C1CCCCC1`, the cytotoxicity call in test [1] and in test [2] was “inactive” throughout. Moreover, the growth inhibition call in test [3] was “inactive”.

With `C[C@@H]1CCCCO[C@@H](CN(C)C(=O)Nc2cccc3ccccc23)[C@H](C)CN([C@H](C)CO)C(=O)c2cc(NS(=O)(=O)c3ccc(F)cc3)ccc2O1`, the cytotoxicity call in test [1] and in test [2] was “active” each time. Besides, in test [3], the growth inhibition call was “inactive”.

With `Cc1ccc(S(=O)(=O)N(C)C[C@@H]2OCCCC[C@H](C)Oc3ccc(NS(=O)(=O)c4ccc(F)cc4)cc3C(=O)N([C@H](C)CO)C[C@@H]2C)cc1`, the cytotoxicity call in test [1] is “inactive”. In test [2], the cytotoxicity call is “active”. In test [3], the growth inhibition call is “inactive”.

`CCCNC(=O)c1cc2c(c(-c3cccc(-c4cccc(OC)c4)c3)n1)[C@H](CCO)N([S@@](=O)C(C)(C)C)C2`: the cytotoxicity call in test [1] and in test [2] was “inactive” throughout. Also, in test [3], the growth inhibition call was “inactive”.

Regarding `C[C@@H]1CN([C@H](C)CO)C(=O)c2cc(NC(=O)c3ccccc3)ccc2O[C@@H](C)CCCCO[C@@H]1CN(C)CC1CCCCC1`, the cytotoxicity call in test [1] and in test [2] was “inactive” each time. Moreover, the growth inhibition call in test [3] is “inactive”.

As to `C[C@H](CO)N1C[C@H](C)[C@H](CN(C)Cc2ccc(C(=O)Nc3ccccc3N)cc2)Oc2ccc(NC(=O)NC3CCCCC3)cc2CC1=O`, the cytotoxicity call in test [1] and in test [2] was “inactive” in each case. The growth inhibition call in test [3] is “inactive”.

With `O=c1[nH]c(=O)c2ccccc2o1`, the cytotoxicity call in test [1] and in test [2] was “inactive” throughout. Moreover, in test [3], the growth inhibition call was “inactive”.
